# Assay results as given in PubChem BioAssay AID1347165 (National Center for Advancing Translational Sciences (NCATS), 2019).
# Out of some 220,000 compounds screened, about 5,700 (2.6%) were called active. The inconclusive results got no clear call from the source; some entries with a clear call stand among them for comparison. Calls come from the whole dose curve; as a rule, active = well fitted inhibition curve with a large enough effect; inconclusive = small, poorly fitted or top-dose-only effect; inactive = no such curve, though single readings can be large or run the other way. A potency beside an inconclusive call is a rough fit, not a confirmed value.
# Molecular target: Lysine-specific demethylase 5B (Homo sapiens) (UniProt Q9UGL1)
# Experiment: Primary screen for KDM5B Histone Demethylases FDH-coupled qHTS; note: nearly all actives have a fitted effect of over 70% in size
# Conditions: FDH-coupled NADH fluorescence (FDH is formaldehyde dehydrogenase); series mostly up to 57.7 µM
# In short: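 Here, H3K4me3 peptide (12.5 µM in substrate mix) is demethylated by KDM5BΔAP, 200 nM final, after 10 min compound exposure. Formaldehyde product is coupled through FDH (0.25 U/mL in mix) to NADH fluorescence; 30-min ΔRFU feeds dose-response curves.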
# Potency is the fitted concentration of half-maximal effect; tags give direction and shape of the fitted curve.
# UniProt Q9UGL1, sequence (Q9UGL1 whole entry, looked up): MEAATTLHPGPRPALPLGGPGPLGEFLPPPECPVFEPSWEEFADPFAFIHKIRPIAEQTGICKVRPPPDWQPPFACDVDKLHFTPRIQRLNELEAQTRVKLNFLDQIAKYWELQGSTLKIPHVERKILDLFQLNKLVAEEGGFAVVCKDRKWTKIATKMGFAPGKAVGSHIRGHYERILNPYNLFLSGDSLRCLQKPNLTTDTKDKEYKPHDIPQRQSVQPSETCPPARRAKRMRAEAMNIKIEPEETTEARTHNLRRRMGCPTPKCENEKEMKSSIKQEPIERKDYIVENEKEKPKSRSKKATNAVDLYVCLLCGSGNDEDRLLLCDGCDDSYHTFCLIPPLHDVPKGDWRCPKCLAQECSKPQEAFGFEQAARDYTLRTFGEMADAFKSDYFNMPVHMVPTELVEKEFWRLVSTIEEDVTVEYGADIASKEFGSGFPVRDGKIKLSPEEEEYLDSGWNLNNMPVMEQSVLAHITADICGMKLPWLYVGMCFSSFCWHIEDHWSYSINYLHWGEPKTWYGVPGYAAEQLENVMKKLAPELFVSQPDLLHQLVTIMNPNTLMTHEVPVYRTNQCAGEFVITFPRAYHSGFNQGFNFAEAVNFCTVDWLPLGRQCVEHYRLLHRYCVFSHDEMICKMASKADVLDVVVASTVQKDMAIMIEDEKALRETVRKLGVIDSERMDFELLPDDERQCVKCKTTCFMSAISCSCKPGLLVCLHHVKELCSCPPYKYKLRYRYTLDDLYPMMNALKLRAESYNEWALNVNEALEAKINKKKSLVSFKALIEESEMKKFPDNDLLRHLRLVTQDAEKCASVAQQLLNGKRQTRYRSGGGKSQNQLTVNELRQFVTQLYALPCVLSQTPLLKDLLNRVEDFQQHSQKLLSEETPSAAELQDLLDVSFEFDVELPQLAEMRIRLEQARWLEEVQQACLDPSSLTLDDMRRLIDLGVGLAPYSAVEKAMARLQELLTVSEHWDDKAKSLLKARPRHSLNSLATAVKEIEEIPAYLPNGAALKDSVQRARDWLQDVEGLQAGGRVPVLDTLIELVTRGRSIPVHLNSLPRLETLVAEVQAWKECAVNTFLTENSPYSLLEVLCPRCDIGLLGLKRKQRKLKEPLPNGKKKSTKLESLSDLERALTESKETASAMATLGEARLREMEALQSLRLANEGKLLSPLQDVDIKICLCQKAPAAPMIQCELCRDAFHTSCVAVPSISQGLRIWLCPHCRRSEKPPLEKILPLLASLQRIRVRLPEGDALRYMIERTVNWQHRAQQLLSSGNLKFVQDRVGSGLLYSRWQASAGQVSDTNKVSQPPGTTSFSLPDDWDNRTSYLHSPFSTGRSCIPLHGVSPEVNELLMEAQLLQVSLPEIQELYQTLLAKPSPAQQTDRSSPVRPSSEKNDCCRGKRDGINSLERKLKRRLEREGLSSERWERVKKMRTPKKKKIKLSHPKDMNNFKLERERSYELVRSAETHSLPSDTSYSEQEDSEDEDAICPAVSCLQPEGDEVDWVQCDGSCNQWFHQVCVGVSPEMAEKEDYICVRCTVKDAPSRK
row,Compound,Potency
1,COC(=O)C1=CN(c2ccc(Cl)cc2)C=C(C(=O)OC)C1c1ccc([N+](=O)[O-])cc1,"inconclusive: 25.1 µM [inhibitor, partial curve, poor fit]"
2,O=C(NCc1cnccn1)c1ccc(-c2ncc3cnc(-c4cccc(F)c4)cn23)cc1,active: 35.5 µM
3,Fc1ccc2nc(CO[C@H]3CN(Cc4ccc5ccccc5n4)C[C@H]3F)[nH]c2c1,active: 35.5 µM
4,CCc1noc(-c2ccn3c(CNC(=O)c4ccc(OC)cc4)nnc3c2)n1,active: 14.1 µM
5,Cc1ccc(-c2cc(C(=O)OCC(=O)NCCc3ccccc3)c3ccccc3n2)o1,"inconclusive: 28.2 µM [inhibitor, partial curve, poor fit]"
6,CCn1cc2c3c(cccc31)CN(C(=O)c1ccc(OC)cc1)CC2,"inconclusive: 25.1 µM [inhibitor, single point]"
7,COc1ccccc1CC(=O)N[C@@H]1CN(c2ncccn2)C[C@H]1CN(C)C,active: 22.4 µM
8,Cc1cc2c(cc1C)NC(CC(=O)Nc1ccc(C(F)(F)F)cc1)C(=O)N2 (centres undefined),"inconclusive: 39.8 µM [inhibitor, single point]"
9,COc1cc(CCC(=O)N[C@H](C2CCNCC2)C2CC(O)C2)ccc1C (some centres undefined),inactive
10,Cc1ccc(NC(=O)Cn2c(-c3ccccc3)nc(C)c(CCO)c2=O)c(C)c1,inactive
11,CN(C)c1cccc(NC(=O)c2ccc3c(c2)NC(C)(COc2cccnc2)CO3)c1 (centres undefined),"inconclusive: 11.2 µM [inhibitor, partial curve]"
12,O=C(Cc1n[nH]c(=O)c2ccccc12)Nc1cccc2ccccc12,inactive
13,C[C@@H]1C(=O)O[C@H]2[C@H]1CC[C@@]1(C)Cc3sc(NC(=O)c4ccc(F)c(Cl)c4)nc3[C@@H](C)[C@H]21,active: 28.2 µM
14,CC(=O)Nc1ccc(NC(=O)CSc2nc3nc(-c4cccs4)cc(C(F)(F)F)c3c(=O)[nH]2)cc1,"inconclusive: 35.5 µM [inhibitor, partial curve, poor fit]"
15,COc1cccc(-c2cn3c(n2)sc2cc(C(=O)NCCc4ccc(OC)c(OC)c4)ccc23)c1,"inconclusive: 5.01 µM [inhibitor, full curve, poor fit]"
16,O=C(NCCn1ccn2nc(-c3ccc(F)cc3)cc2c1=O)c1ccc2[nH]ccc2c1,"inconclusive: 14.1 µM [inhibitor, partial curve]"
17,O=C(NCc1cccnc1)c1nc(-c2ccc(Cl)cc2Cl)c2cnccn12,"inconclusive: 56.2 µM [inhibitor, partial curve, poor fit]"
18,CN1[C@@H](CCC(=O)N2CCOCC2)CNC(=O)[C@@H]2[C@H]1CCN2C1CCCCC1,"inconclusive: 22.4 µM [inhibitor, partial curve, poor fit]"
19,COCCOC1CN(C2CCN(Cc3ccccc3)CC2)C12CCCCC2 (centres undefined),inactive
20,OCCN1CCN(C(c2ccccc2Cl)c2sc3nc(-c4ccco4)nn3c2O)CC1 (centres undefined),"inconclusive: 1.26 µM [inhibitor, full curve, poor fit]"
21,CN(Cc1ccccc1)C(=O)c1ccc(OCc2ccccc2)cc1,inactive
22,COc1ccc(-c2nc(C3CC3)nc3c2CN(C(=O)c2ccc4c(c2)OCO4)CC3)cc1,"inconclusive: 44.7 µM [inhibitor, partial curve, poor fit]"

row,Compound,Potency
1,Cc1cc(Nc2cccc(Cl)c2)nc(NCc2ccccc2)n1,"inconclusive: 31.6 µM [inhibitor, partial curve, poor fit]"
2,Cn1ncc2c(C(=O)N3CCOCC3)cc(-c3cccnc3)nc21,inactive
3,COC[C@@H]1CCCN1CCC(=O)Nc1ccc(C(=O)OC)cc1,inactive
4,CCCCNC(=O)CN1CCN(c2nc(C(F)(F)F)nc3ccccc23)CC1,inactive
5,O=C(NCc1cc(F)ccc1F)C1CN(S(=O)(=O)c2cccnc2)CC12CCCCC2 (centres undefined),inactive
6,O=C(c1ccc(N2CCC(CO)C2)nc1)N1CCC(N2CCOCC2)CC1 (centres undefined),"inconclusive: 28.2 µM [inhibitor, single point]"
7,Clc1cccc(CNc2cc(-c3ccccc3)nc3nncn23)c1,"inconclusive: 28.2 µM [inhibitor, partial curve, poor fit]"
8,CN1C(=O)[C@@H]2C[C@@H](CN2Cc2ccc3ccccc3n2)Oc2ccccc21,"inconclusive: 35.5 µM [inhibitor, partial curve, poor fit]"
9,O=C(CCc1ccccc1)N1CCCC(CN2CCCC2)CC1 (centres undefined),"inconclusive: 31.6 µM [inhibitor, partial curve, poor fit]"
10,CCOc1ccccc1NC(=O)c1cnc(N2CCCCC2)c2ccccc12,"inconclusive: 31.6 µM [inhibitor, partial curve, poor fit]"
11,O=C(Nc1nn[nH]n1)c1ccc(Br)c(S(=O)(=O)N2CCOCC2)c1,inactive
12,COc1ncccc1-c1cnc2[nH]cc(CC(=O)Nc3cccc(Cl)c3)c2c1,active: 31.6 µM
13,CCC(=O)n1nc(-c2cccnc2)nc1NCc1ccc(F)cc1,"inconclusive: 35.5 µM [inhibitor, single point]"
14,CC1(C)Cc2cccc(C(=O)Nc3ccc(Cl)cc3)c2O1,"inconclusive: 39.8 µM [inhibitor, single point]"
15,COc1cccc(-n2cnc3scc(-c4ccc(Cl)cc4)c3c2=O)c1,inactive
16,CCn1cc(CN2CCN(C(=O)CCc3ccccc3)CC2)ccc1=O,active: 7.08 µM
17,COC[C@@H]1CN(C(=O)c2ccoc2C)C[C@H]1c1nc(C)no1,inactive
18,CC(=O)N1CCNc2cc(Nc3cccc(N(C)C)c3)ncc2C1,inactive
19,CN(C)c1cccc(Oc2nnnn2[C@H]2CO[C@H]3[C@@H]2OC[C@@H]3NS(=O)(=O)c2ccccc2C#N)c1,inactive
20,O=C(c1ccco1)N1C[C@@H]2C(CN(CC#Cc3ccccc3)C3CC3)[C@@H]2C1 (some centres undefined),"inconclusive: 31.6 µM [inhibitor, single point]"
21,Cc1ccc(C(C)CCN2CCC(N3CCC(C(=O)NC4CC4)CC3)CC2)o1 (centres undefined),"inconclusive: 35.5 µM [inhibitor, single point]"
22,COc1ccc(NC(=O)c2cc3c(N4CCSCC4)nc(C)cn3n2)cc1F,active: 28.2 µM
